Measurements published in the supplement of paper PMC4967469.
A lower IC50 marks a more sensitive line; where the fit passes the top or lowest dose, that dose stands as a limit. AUC, from the same fit, is the share of area under the viability curve across the 256-fold dose range; values near 1 show little effect. For part of these data: The top dose, if marked as inferred, was derived from the fitted curves, not read from the paper.

Columns and labels:
Assay in all cases: Viability of human cancer cell lines after 72 h of drug (GDSC screen)
[1] = compound: C=CC(=O)Nc1ccc(C(=O)c2sc(Nc3ccc(N4CCN(C)CC4)cc3OC)nc2N)cc1 [XMD15-27]; conditions: top dose 10.24 µM; top dose inferred
Description: (§1)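 Human cancer cell lines in 384-well plates, medium with 10% serum, drug for 72 h over a 256-fold dose range (nine 2-fold or five 4-fold steps up to the top dose). Adherent lines were fixed and stained with the nucleic acid dye Syto60, suspension lines read with resazurin; signal relative to control wells, capped at 0 and 100%. One two-parameter sigmoid per drug and line, fitted in a mixed model over all curves with the slope shared within a line.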

[2] = compound: CC(=O)O[C@@H]1[C@@H](OC(C)=O)[C@@H](O)[C@H](Oc2c(-c3ccc(O)cc3)oc3cc(O)cc(O)c3c2=O)O[C@H]1C [SL 0101-1]; conditions: top dose 10 µM; top dose inferred
Description: as §1

[3] = compound: CO[C@H]1C[C@@H]2CC[C@@H](C)[C@@](O)(O2)C(=O)C(=O)N2CCCC[C@H]2C(=O)O[C@H]([C@H](C)C[C@@H]2CC[C@@H](OC(=O)C(C)(CO)CO)[C@H](OC)C2)CC(=O)[C@H](C)/C=C(\C)[C@@H](O)[C@@H](OC)C(=O)[C@H](C)C[C@H](C)/C=C/C=C/C=C/1C [Temsirolimus]; conditions: top dose 0.2 µM
Description: as §1

H2461 (mesothelioma, adherent) was tested, and the AUC [1] was 0.983, the IC50 [1] was over 10.2 µM and the AUC [2] was 0.983. The IC50 [2] was over 10 µM, the AUC [3] was 0.802 and the IC50 [3] was 0.128 µM.

For A498 (kidney, adherent), the AUC [1] was 0.979, the IC50 [1] was over 10.2 µM and the AUC [2] was 0.974. For the same cell line, the IC50 [2] was over 10 µM, the AUC [3] was 0.821 and the IC50 [3] was over 0.2 µM.

TE-4 (oesophagus, adherent) showed an AUC [1] of 0.987, an IC50 [1] of over 10.2 µM and an AUC [2] of 0.987. For the same cell line, the IC50 [2] was over 10 µM, the AUC [3] was 0.951 and the IC50 [3] was over 0.2 µM.

PANC-02-03 (pancreas, adherent) gave an AUC [1] of 0.981, an IC50 [1] of over 10.2 µM and an AUC [2] of 0.973. The IC50 [2] was over 10 µM, the AUC [3] was 0.825 and the IC50 [3] was 0.154 µM.

KM-H2 (Hodgkin lymphoma, suspension) was tested, and the AUC [1] was 0.988, the IC50 [1] was over 10.2 µM and the AUC [2] was 0.988. It also gave an IC50 [2] of over 10 µM, an AUC [3] of 0.984 and an IC50 [3] of over 0.2 µM.

Work on PEO1 (ovary, adherent) yielded an AUC [1] of 0.984, an IC50 [1] of over 10.2 µM and an AUC [2] of 0.987. For the same cell line, the IC50 [2] was over 10 µM, the AUC [3] was 0.882 and the IC50 [3] was over 0.2 µM.

Hs766T (pancreas, adherent) showed an AUC [1] of 0.983, an IC50 [1] of over 10.2 µM and an AUC [2] of 0.975. It also gave an IC50 [2] of over 10 µM, an AUC [3] of 0.634 and an IC50 [3] of 0.0331 µM.

With “SK-MES-1 (lung squamous cell carcinoma, adherent)” the AUC [1] was 0.968, the IC50 [1] was over 10.2 µM and the AUC [2] was 0.969. For the same cell line, the IC50 [2] was over 10 µM, the AUC [3] was 0.833 and the IC50 [3] was 0.145 µM.

With HT-3 (cervix, adherent) the AUC [1] was 0.977, the IC50 [1] was over 10.2 µM and the AUC [2] was 0.983. It also gave an IC50 [2] of over 10 µM, an AUC [3] of 0.896 and an IC50 [3] of over 0.2 µM.

PL4 (pancreas, adherent) was tested, and the AUC [1] was 0.987, the IC50 [1] was over 10.2 µM and the AUC [2] was 0.987. The IC50 [2] was over 10 µM, the AUC [3] was 0.907 and the IC50 [3] was over 0.2 µM.

For RCC-FG2 (kidney, adherent), the AUC [1] was 0.976, the IC50 [1] was over 10.2 µM and the AUC [2] was 0.971. It also gave an IC50 [2] of over 10 µM, an AUC [3] of 0.549 and an IC50 [3] of 0.0177 µM.

For EGI-1 (biliary tract, adherent), the AUC [1] was 0.982, the IC50 [1] was over 10.2 µM and the AUC [2] was 0.92. It also gave an IC50 [2] of over 10 µM, an AUC [3] of 0.545 and an IC50 [3] of 0.0172 µM.

ASH-3 (thyroid, adherent) gave an AUC [1] of 0.986, an IC50 [1] of over 10.2 µM and an AUC [2] of 0.987. For the same cell line, the IC50 [2] was over 10 µM, the AUC [3] was 0.839 and the IC50 [3] was 0.137 µM.

8505C (thyroid, adherent) showed an AUC [1] of 0.972, an IC50 [1] of over 10.2 µM and an AUC [2] of 0.985. It also gave an IC50 [2] of over 10 µM, an AUC [3] of 0.669 and an IC50 [3] of 0.0382 µM.

With CP66-MEL (melanoma, adherent) the AUC [1] was 0.986, the IC50 [1] was over 10.2 µM and the AUC [2] was 0.986. The IC50 [2] was over 10 µM, the AUC [3] was 0.915 and the IC50 [3] was over 0.2 µM.

SK-HEP-1 (liver, adherent) gave an AUC [1] of 0.989, an IC50 [1] of over 10.2 µM and an AUC [2] of 0.987. The IC50 [2] was over 10 µM, the AUC [3] was 0.853 and the IC50 [3] was 0.14 µM.

HT-1080 (fibrosarcoma, adherent) gave an AUC [1] of 0.989, an IC50 [1] of over 10.2 µM and an AUC [2] of 0.969. For the same cell line, the IC50 [2] was over 10 µM, the AUC [3] was 0.556 and the IC50 [3] was 0.0175 µM.

With D-566MG (glioma, adherent) the AUC [1] was 0.967, the IC50 [1] was over 10.2 µM and the AUC [2] was 0.985. The IC50 [2] was over 10 µM, the AUC [3] was 0.43 and the IC50 [3] was 0.00808 µM.
